The other results are listed elsewhere or left out.
T1: UNK ZnF1-6 (called full-length) (human, UniProt Q9C0B0 30-357)
T1 sequence: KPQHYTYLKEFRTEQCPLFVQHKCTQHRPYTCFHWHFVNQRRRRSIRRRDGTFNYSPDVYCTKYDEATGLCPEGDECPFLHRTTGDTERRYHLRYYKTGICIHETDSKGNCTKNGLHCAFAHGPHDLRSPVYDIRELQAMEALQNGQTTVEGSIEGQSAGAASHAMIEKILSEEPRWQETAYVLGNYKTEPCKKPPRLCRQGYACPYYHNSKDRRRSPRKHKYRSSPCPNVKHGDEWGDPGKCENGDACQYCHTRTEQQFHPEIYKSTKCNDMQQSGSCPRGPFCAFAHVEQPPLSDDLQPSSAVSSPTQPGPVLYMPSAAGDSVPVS

B1: chr10:99876058:99876159:-|3pUTR|ENSG00000107554|msi1|total|mutant (ssRNA)
RNA: GGGAGUUCUACAGUCCGACGAUCUUGAGCCUAAUGGAAGACUGGAUGUCUUUCUUCUUCAUCCAAGCACCCUAAUGACUGUUCCGUUACAUCCACCGAUGCAGACAACAUAACACCUGUGACUUACUUGAAUUGGGAUAAGCCCAACAGAGGAUUGAGCAUCA
B2: chr4:127885990:127886091:+|CDS|ENSG00000142731|msi1|total|mutant (ssRNA)
RNA: GGGAGUUCUACAGUCCGACGAUCAUUACUUAUCGGGAGACCACCCUUCGACACUGACACAGUCAAGAACACAUUAAAUAAAGCCGUAUUGGCAGAUUAUGAAAUGCCAUCUUUUUUGUCAACCGAGGCCAAGGACCUUAUUCACAACAGAGGAUUGAGCAUCA
B3: chr18:9257137:9257239:+|CDS|ENSG00000101745|unk|FALSE|bound_elsewhere (ssRNA)
RNA: GGGAGUUCUACAGUCCGACGAUCUCUUAGGUCAUCUUCUGUAGAAGAUGUUAAACUAAUUAUAAGCGAGGGGAGACCUACCAUAGAAGUUCGAAGAUGUAGCAUGCCUUCUGUCAUUUGUGAACAUACCAAACAAUUCCAAACCAACAGAGGAUUGAGCAUCA
B4: chr12:122508217:122508450:-|three_prime_utr|ENSG00000111011|control|control|control (ssRNA)
RNA: GGGAGUUCUACAGUCCGACGAUCAGGUUCUGUUCUCAAUGUUGCUGCCCUGUUGGCAUCAGGAACACAAGUAACACCUCAGAUAGCCAUGGCAGCUCAGAUGGCAGCCCUGCAAGCUAAAGCUUUGGCAGAGACAGGAAUAGCCAACAGAGGAUUGAGCAUCA
B5: ENSG00000124766:be:win_3651|3pUTR|ENSG00000124766|bound_else_gene|NA|bound_elsewhere_windowed (ssRNA)
RNA: GGGAGUUCUACAGUCCGACGAUCUCGCUAAAUAUAAUUGUUUUAGUCUUAUGGCAUGAUGAUAGCAUAUGUGUUCAGGUUUAUAGCUGUUGUGUUUAAAAAUUGAAAAAAGUGGAAAACAUCUUUGUACAUUUAAGUCUGUAUCAACAGAGGAUUGAGCAUCA
B6: chr15:58589816:58589917:-|3pUTR|ENSG00000137845|unk|total|mutant (ssRNA)
RNA: GGGAGUUCUACAGUCCGACGAUCAUUCAUUUGCUGAAGAGCUGGCUUGUACUUUGGCAGGUGUCAUACUUGGUUAUUCUCCUCCGGAUAUUGGCCCAACAAUCUGGGAGUUGUGAAAGGCGCUUCGCUUUUCAGACCUGGGCGCAACAGAGGAUUGAGCAUCA
B7: ENSG00000013306:stop:overlap|stop_codon|ENSG00000013306|stop_codon|NA|stop_codon (ssRNA)
RNA: GGGAGUUCUACAGUCCGACGAUCGUCCCCACCUCGGCCCAAACCCAGUCAGUCCCAGCUCCCAGCCCCAACCUCUGCCAGCCUAGGGAUAGGGGGGUGUUCUAGGUCCCCAGACCUGGGACAGCAGCCCUGUACUGGUUCAACCAACAGAGGAUUGAGCAUCA
B8: ENSG00000138760:stop:overlap|stop_codon|ENSG00000138760|stop_codon|NA|stop_codon (ssRNA)
RNA: GGGAGUUCUACAGUCCGACGAUCACCAAUCUGUUGGAGACCCUAAAAUUGACUUAAUUAGAACAUUAAAUAUUCCUGUAUUGUAGGAGAGAGUGGAUGGAGGUGCUUUGGAGGGGAUGCUGCUGUCUUAAUAUACCUCUGCUCCAACAGAGGAUUGAGCAUCA
B9: chr4:102887774:102887875:+|3pUTR|ENSG00000145354|msi1|total|mutant (ssRNA)
RNA: GGGAGUUCUACAGUCCGACGAUCUUGGUUUUGAUAAUCUGAAGUGUUUUUUUCUCGUUUUGGCCUUCCAAACUGCAUUUGGUCCGGUGAAUUAAGAAAAAUAUUGCCAUCAAGAAUUACUUGUGUUUUCACAGAGACCGACUCCAACAGAGGAUUGAGCAUCA
B10: chr2:24000049:24000165:+|3pUTR|ENSG00000173960|unk|total|mutant (ssRNA)
RNA: GGGAGUUCUACAGUCCGACGAUCGCCGCAUAUGACUGGAAACUAUAUUCAGUGCACUUUCUCCAAAAGACUACCCAGAAAAACCGACUUAUUUUCAAAUACCAGUUAUCAAGAUAUAUUAAACCGCUGUAUUGUUCCGAAUCUCAACAGAGGAUUGAGCAUCA
B11: chr15:50499066:50499164:+|CDS_3pUTR|ENSG00000138592|msi1_unk|FALSE|overlapping (ssRNA)
RNA: GGGAGUUCUACAGUCCGACGAUCUACUUCAUUGGGACCACGAGUAACUGAUGUAGCCACAUAAGGAGACAUAGGUUAUAAACUAGUUAUCUUUUAAAAGGCUCAGCAACACAACUCUUGAAAUGCUUAUCAGGAUAAUGGUAGCAACAGAGGAUUGAGCAUCA
B12: chrX:102369585:102369736:-|CDS|ENSG00000269437|control|control|control (ssRNA)
RNA: GGGAGUUCUACAGUCCGACGAUCUGCGAAAGAAGAAUGAAAUGGCAUAGUGAAGACGAAAUCCGUAUUACCACGUGGAGAAAUAGAAAACCUCCGGAGAGAAAAAUGAGUCAGAACACACAGGAUGGAUACACAAGGAACUGGCAACAGAGGAUUGAGCAUCA
B13: chr3:64018827:64018930:-|CDS|ENSG00000163636|unk|total|mutant (ssRNA)
RNA: GGGAGUUCUACAGUCCGACGAUCUGAACUCAUGGAUUAUAAAACAUUUGUGACUUAUACUGUCUAUGUCAGUAUGAUUGCCUCCGAAAGACCAGAUCUCAGGGAAAAGGUAAUGACCAAACUUUAAUACUCAAAUUUAAAGACCAACAGAGGAUUGAGCAUCA
B14: chr7:77749912:77750028:+|CDS|ENSG00000187257|unk|FALSE|unique (ssRNA)
RNA: GGGAGUUCUACAGUCCGACGAUCUGCAGCUUUCUACGUGAUGGGUAUUGUUCAUGGGGCAGCUACUUAUUUACCUGACUUUUUAGACUAUUUUUCAUUUAAUUUUCCCAAUUCACCAGUGAAAAUGGAGAUAUUGGGAAAGAACAACAGAGGAUUGAGCAUCA
B15: chr5:116443554:116446612:-|three_prime_utr|ENSG00000092421|control|control|control (ssRNA)
RNA: GGGAGUUCUACAGUCCGACGAUCCCGCCAGUGUUACAGCUUUCUGUUGCAGCAGAUAAAUGCCAUGUUGGGCAACUAUGUCAUAGAUUUCUGCUCCUCCUCUCUUUUAAUGAAAUAACGUGACCGUUAACGCAAGUAACUCUUCAACAGAGGAUUGAGCAUCA
B16: chr1:94983078:94983306:-|CDS|ENSG00000172339|control|control|control (ssRNA)
RNA: GGGAGUUCUACAGUCCGACGAUCCCUUGGGAUACUAGGAAUAAAGAAAGUGAUCAUUGUCUACGUUGAAAGCAUCUGCCGUGUAGAAACGUUAUCCAUGUCCGGAAAGAUUCUGUUUCAUCUCUCAGAUUACUUCAUUGUUCACAACAGAGGAUUGAGCAUCA
B17: chr11:62152232:62152344:+|3pUTR|ENSG00000149503|unk|total|mutant (ssRNA)
RNA: GGGAGUUCUACAGUCCGACGAUCUGCUCUGUAAACCGUUGUUUUAAUUCCGCUGAAUGUCCGCAUUUCCGUCUUUGGCAUUUCCGCGUUUGGGAGGCCGAUUAAUAAAGUAUAUUCCUUCAAGCCUGCUGUUGAUACCAUGAACAACAGAGGAUUGAGCAUCA
B18: chr7:73478007:73478118:-|CDS|ENSG00000009954|unk|total|mutant (ssRNA)
RNA: GGGAGUUCUACAGUCCGACGAUCAAAGGCACGCAGAAGAUGACACGAGCCCCACGGAAUUCUGGGGGUACACCCCGGACCUCCCGUAAACCUCAUAAACAUCUGCCUCCUGCAGCCCUACACCUCAUUGCAUACUACAAAGAACAACAGAGGAUUGAGCAUCA
B19: chr12:130875966:130876013:+|3pUTR|ENSG00000132341|msi1_unk|FALSE|overlapping (ssRNA)
RNA: GGGAGUUCUACAGUCCGACGAUCGAUGAGGAUGAUGACCUGUGAGAAUGAAGCUGGAGCCCAGCGUCAGAAGUCUAGUUUUAUAGGCAGCUGUCCUGUGAUGUCAGCGGUGCAGCGUGUGUGCCACCUCAUUAUUAUCUAGCUCAACAGAGGAUUGAGCAUCA
B20: chr7:18026828:18027782:-|CDS|ENSG00000229937|control|control|control (ssRNA)
RNA: GGGAGUUCUACAGUCCGACGAUCUGGAAUCUUUUCUGGCCCAGCCAUUUCUCGCAUCAACACUGCAUGCUUUGAAGCAGUGGUAGUCACCAAUACCAUACCUCAAGAUGAGAAGAUGAAGCAUUGCUCCAAAAUACGAGUAAUCAACAGAGGAUUGAGCAUCA
B21: chr12:6655637:6655878:-|three_prime_utr|ENSG00000111653|control|control|control (ssRNA)
RNA: GGGAGUUCUACAGUCCGACGAUCUCACUUGGUUUCUUCAAAGAUGUCUGUUGGAGCUAUUCCCAUACCCACUGAAGGAUCUGUAGUCUUGUCUUCAUUCUAUGUAGCCAUGUUCAAGGAUGUAACAGACUGGUUUUGAGAUACCAACAGAGGAUUGAGCAUCA
B22: chr18:21869459:21869560:+|3pUTR|ENSG00000101752|msi1|total|mutant (ssRNA)
RNA: GGGAGUUCUACAGUCCGACGAUCUAAAAGAUGGUCUUCCGUGCACGUGUAUCAUUAUAUACACGUUUUAAAGUCAUAUUGCUCCGCUUGUUAAUAAUGAUUCUGCAUGUGUGCUGGGUUUGGGUAAUUCUUUAAAGGAAGUUUCAACAGAGGAUUGAGCAUCA

Each binder was assayed against T1, UNK ZnF1-6 (called full-length) (assay: nsRBNS (natural sequence RNA bind-n-seq); RBNS binding buffer (assumed for nsRBNS): 25 mM Tris pH 7.5, 150 mM KCl, 3 mM MgCl2, 0.01% Triton X-100, 500 ug/ml BSA, 20 U/ml SUPERase-In, 4 C; UNK is unkempt and MSI1 is Musashi-1; names of the RNAs are library labels; protein concentration not given here; high values mean tight binding).

Row | Binder | binding signal [enrichment R]
1 | B1 | 0.501
2 | B2 | 0.501
3 | B3 | 1.06
4 | B4 | 0.573
5 | B5 | 0.871
6 | B6 | 0.6
7 | B7 | 0.737
8 | B8 | 0.363
9 | B9 | 0.367
10 | B10 | 0.877
11 | B11 | 0.742
12 | B12 | 0.879
13 | B13 | 0.469
14 | B14 | 1.83
15 | B15 | 0.437
16 | B16 | 0.241
17 | B17 | 0.494
18 | B18 | 0.485
19 | B19 | 0.772
20 | B20 | 0.579
21 | B21 | 0.291
22 | B22 | 0.416
